# Measured values reported in the supplement of paper PMC12632987.
# In all, about 4,500 sequences were measured (“median log2 fold change of GCK-ALFA target abundance (FLAG IP / Myc IP barcode read proportion)”: median about 0.078, lowest 2% from about -0.6 on). This is one part of the list.
# B1: GBRAP_159_3965 (protein)
# chain: MEAKLAAARALAAEAGLSPEATAEILEAVELYEEGESDGSVAAHLYHAIVKHGMTVEQVRAVARFFKSLGLDEALELTAFLLEESGLEEQAAAIRAVLAE
# B2: GBRAP_83_6949 (protein)
# chain: KEKLVVAANDDNVEKAVEIAEELAKTGKYDVTLEFIGTVEAAEKLIEEVEKAWKKGVKMDVEVLLEGATEEEVKKVKEKFEKAAKEAGADVKVEVHALPK
# B3: GBRAP_160_4259 (protein)
# chain: EEKRKELIKDVEEDKKEILELVDKESAEEVRTFAVVELGSHIMEAIDEGVVSDEEEEELEEIRDELEEELEKNKNGSKEKIKEIIEKHFEKAIELLKKAK
# B4: GBRAP_74_6555 (protein)
# chain: SAALLAQARALKAAKDLAGLIALAEANVDKVTPAEAAELLTILTTAVVEHGDEMTDEQLERAMDAIVALELKIPNEDITDELADNIAKAVAIAVEREKKL
# B5: GBRAP_184_5057 (protein)
# chain: AIKEETIKAETLEELKKKLEELKEKLKNFKGELIVLVEIPKFTKEMIETLMKTLKEILDEGYVDSVTVGLDGEMSEEVIDLAIKLAKEAGIKLTIALEEE
# B6: GBRAP_80_6850 (protein)
# chain: AEAALAAALAALAAVLPEGAATAKRIVELALALGVPKAVITDLLNALTELAKVDPEKAKALLEELLADIEEEAAAGDRANAEAVLRGYAGEALLEAEELE
# B7: GBRAP_184_5240 (protein)
# chain: KILEKTVEAENAEELKEKLEEIKKEAEKAGAKVRLLIKVKELTKEKAETLAEMIKEMAKAGLIELVGIVSSEPISEENIDLLVKAADEAGVKLVIAEPEI
# B8: GBRAP_122_2952 (protein)
# chain: NSEEEVEKMVEETMKEAEKKDPAETIVKAIKEAAEKLDEESVIEFARKLKEKAIEKGWEAEAAKAFATAALWLEKEKPELANAADELAELADELFDLLLE
# B9: GBRAP_78_6690 (protein)
# chain: EIEELLDKAIEELGKAAKILAKMNTEEALDLLGKVIDAASILEEALLGETKLEDLKEALAELKEVAKELKKIDTPEAKEALKHVEKAIKYVEKAIKLLEK
# B10: GBRAP_43_5773 (protein)
# chain: SKELVEGALDFALLAAESPEIPEETKVKAIIAAFRLAADEGYADRELVKKVVEAAAKNLSAESLKKILEELKEIAEKHPELKEVFDEAAEILEKAIKEKE
# B11: GBRAP_55_6433 (protein)
# chain: SEDEELDKELSEDMMEVAAGLIEDPEAMERVLTRLAKDLAGKTIYITKEALDLLETEEERREFLRRVVEAAKAEKKIKGIELIDASEEDKELLEEAKKEV
# B12: GBRAP_83_6881 (protein)
# chain: KEEIVVAGPDDHVEELVEIAIDLHKEEGYEVTIEILVTEEGIEKVLEAIERLAKEGVDTEVILHGEGLSKEKLEELEKKAKEIAKKYGSNIKIKVLLDEP
# B13: GBRAP_125_3142 (protein)
# chain: MKAKLIALAEALARALGLSEEEIAELRELAEASDPAQTIVAILLAAGFEEEAELAREVLPKLTEEELEELTELARSLEGKSLEELREALLKKLKELKEKL
# B14: GBRAP_160_3987 (protein)
# chain: EEKLEELIEFIEEETEEIKEMIKGQSHEERVVIIEGGMGEIIMELSSEESVSDEAEEKIAEIGDELVETIRKNPELSYEEIVELIDKAREEMIEILKKDF
# B15: GBRAP_11_2865 (protein)
# chain: KKEKLKEIAELLEEAEKVLEELLKEGTENEKLYKEALELLKKILELVKKYSDEADKKLAEEALKLLEEAKKNPEKAEEYVKQALAFVRVLRGNVLLDIEE
# B16: GBRAP_160_4689 (protein)
# chain: SEKLKEAKKFIKEEFDFVVSLWPDVSKEELAAAVRVAFGQIKLELEELGLLTEKVDKTIDEEEDKIVAAILANPNITKEELKAMLDAAAKKIFAELEKES
# B17: GBRAP_39_5673 (protein)
# chain: EEEEENEDVVSYLEGVAAKYLYETGKSLEEAYEEAKKILEKYAKENPELKELLEKLIKIAEEKGEEAKLVLIGIAVLIKEGTPKEEIKKLIEKVIKYFES
# B18: GBRAP_11_2870 (protein)
# chain: SKEALKKIAELAEELAKAIEQLLKEGVDNEELRKKITELLEELAELVKKHGDKAMQKLAEIAKELWEKALADPENAEQYLKEMLATVRVLAGQALLALEE
# B19: GBRAP_52_6139 (protein)
# chain: MRERLRRLAEEIIELVKEGKLEEARELAERIARELNDEELRLFAEEFARVFRELRPEEVDYAAEALEILEEALEEAGRPEEIISYLLGESTRALYEVELR
# Molecular target: GABARAP, O95166
# Experiment: median log2 fold change of GCK-ALFA target abundance (FLAG IP / Myc IP barcode read proportion) (log2 ratio); each designed protein is fused to an ALFA-tag nanobody in HEK293 cells to bring the named protein to FLAG-tagged glucokinase (GCK); Myc marks an untargeted standard; higher = target protein stabilised (more abundant)
# Settings: target protein: 3xFLAG-MCP-GCK-ALFA reporter; HEK293 landing pad (RPLP)
# Protocol: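 LABEL-seq trans screen in HEK293 landing-pad cells. Each de novo designed 100-aa effector handle, binding the indicated effector (E3 ligase, DUB or autophagy protein), is fused to a constant NbALFA target handle and induced with 2 ug/mL doxycycline. A FLAG-MCP-GCK-ALFA target and a Myc-MCP standard reporter were transfected, and after 48 h circRNA barcodes were recovered by anti-FLAG and anti-Myc IP and sequenced. The value is the median across barcodes (at least 3 per design) of log2(FLAG/Myc read-proportion ratio), with the two transfection replicates pooled. Negative values mean degradation and positive values mean stabilisation of the target.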
# Chain of GABARAP, O95166 (O95166 whole entry, the tested form may be a part): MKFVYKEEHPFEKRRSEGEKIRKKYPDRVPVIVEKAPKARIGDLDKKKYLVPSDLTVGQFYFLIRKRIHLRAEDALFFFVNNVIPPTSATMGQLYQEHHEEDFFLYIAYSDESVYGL
row,Binder,median log2 fold change
1,B1,0.1
2,B2,0.281
3,B3,0.165
4,B4,0.199
5,B5,0.0533
6,B6,0.0781
7,B7,0.168
8,B8,0.0747
9,B9,-0.0248
10,B10,0.103
11,B11,0.0781
12,B12,-0.148
13,B13,0.151
14,B14,-0.283
15,B15,0.211
16,B16,-0.0037
17,B17,0.136
18,B18,-0.267
19,B19,-0.0979
